Among all 360,000 compounds or so, about 520 (0.14%) were called active. The shares of active, inactive and inconclusive entries below differ from those in the screen. Calls come from the whole dose curve; as a rule, active = well fitted inhibition curve with a large enough effect; inconclusive = small, poorly fitted or top-dose-only effect; inactive = no such curve, though single readings can be large or run the other way. Potencies of inconclusive entries are left out as doubtful fits.
Each molecule was assayed against Rap guanine nucleotide exchange factor 3 (Homo sapiens) (UniProt O95398) (assay: qHTS for Antagonist of cAMP-regulated guanine nucleotide exchange factor 3 (EPAC1): primary screen). Settings: EPAC1 GEF assay, Rap1b-BODIPY-GDP exchange fluorescence; series mostly up to 115 µM.
UniProt O95398, sequence (O95398 whole entry, looked up): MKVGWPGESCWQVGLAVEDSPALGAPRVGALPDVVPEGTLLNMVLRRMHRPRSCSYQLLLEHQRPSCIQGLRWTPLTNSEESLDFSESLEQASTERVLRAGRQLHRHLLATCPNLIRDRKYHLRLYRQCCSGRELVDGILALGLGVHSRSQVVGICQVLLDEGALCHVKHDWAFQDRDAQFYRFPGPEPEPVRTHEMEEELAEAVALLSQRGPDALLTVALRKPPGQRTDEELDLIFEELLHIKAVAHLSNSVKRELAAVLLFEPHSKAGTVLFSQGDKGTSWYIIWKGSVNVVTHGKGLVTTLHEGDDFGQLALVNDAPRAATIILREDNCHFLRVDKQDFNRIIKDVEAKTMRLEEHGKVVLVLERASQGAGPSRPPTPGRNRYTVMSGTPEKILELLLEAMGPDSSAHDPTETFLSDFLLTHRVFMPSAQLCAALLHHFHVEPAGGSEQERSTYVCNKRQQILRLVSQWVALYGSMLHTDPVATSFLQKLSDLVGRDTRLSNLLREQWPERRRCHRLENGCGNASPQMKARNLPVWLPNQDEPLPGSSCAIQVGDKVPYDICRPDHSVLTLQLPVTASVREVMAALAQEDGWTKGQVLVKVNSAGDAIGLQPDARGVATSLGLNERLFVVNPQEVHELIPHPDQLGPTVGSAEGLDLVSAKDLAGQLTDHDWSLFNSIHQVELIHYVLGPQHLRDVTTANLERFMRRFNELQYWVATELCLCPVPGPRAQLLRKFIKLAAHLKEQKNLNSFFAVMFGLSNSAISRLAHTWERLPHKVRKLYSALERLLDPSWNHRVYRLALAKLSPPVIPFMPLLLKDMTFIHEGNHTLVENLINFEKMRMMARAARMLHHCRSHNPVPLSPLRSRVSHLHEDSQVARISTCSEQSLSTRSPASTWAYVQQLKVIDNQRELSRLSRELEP
In the case of `CC(=O)c1c(C)[nH]c(C(=O)Nc2cccc(C)c2C)c1C`, the Potency is reported as inconclusive [inhibitor, full curve].
In the case of `C#CCOCCOCCOCCNc1nc(N2CCN(C(=O)CCCCCCCCCCNC(=O)[C@H](CCCCN)n3cc(C[C@@H](C)CC)nn3)CC2)nc(N2CCN(C(=O)CCCCCCCCCCNC(=O)[C@H](CCCCN)n3cc(C[C@@H](C)CC)nn3)CC2)n1`, the Potency is reported as inconclusive [inhibitor, partial curve].
For `Cn1cc(C(c2ccccc2OCC(=O)O)c2cn(C)c3ccccc23)c2ccccc21`, the Potency was “inactive”.
`COc1cccc(NC(=O)c2ccc(-c3ccccc3[N+](=O)[O-])o2)c1` was tested, and the Potency was inconclusive [inhibitor, full curve, poor fit].
With `CCOC(=O)C1=C(c2ccccc2)NC(N)=NC1c1ccc(OCc2ccc(C(=O)OC)cc2)cc1` (configuration not stated) the Potency was inconclusive [inhibitor, partial curve, poor fit].
With `CCCn1c(=O)c(C(=O)NNS(=O)(=O)c2ccc(C)cc2)c(O)c2ccccc21` the Potency was inconclusive [inhibitor, single point].
`CC(=O)NC1C(=O)N(CCN2CCOCC2)c2ccc(C)cc21` (configuration not stated) was tested, and the Potency was inconclusive [inhibitor, full curve].
For `CC(C)(C)NC(=O)C(c1ccc(C#N)cc1)n1c(=O)c(-c2cc3ccccc3[nH]2)nc2ccccc21` (configuration not stated), the Potency was inconclusive [inhibitor, single point].
`CN(C)S(=O)(=O)c1cc(NC(=O)COC(=O)CCSc2ccc(Cl)cc2)ccc1Cl` was tested, and the Potency was inconclusive [inhibitor, partial curve, poor fit].
`O=C(NCc1cccnc1)c1ccc(COc2ccccc2Cl)cc1` was tested, and the Potency was inconclusive [inhibitor, full curve, poor fit].
In the case of `COc1ccc(Cn2c(=O)cc(C)[nH]c2=S)cc1`, the Potency is reported as inconclusive [inhibitor, partial curve].
In the case of `N#CCCN(C(=O)Nc1ccccc1)c1ccccc1`, the Potency is reported as “inactive”.
`Clc1ccc(CSc2nnc(-c3ccccn3)n2Cc2ccco2)cc1Cl` was tested, and the Potency was “inactive”.
With `O=C(/C(=C/c1ccncc1)n1ccnc1)c1ccc(Cl)cc1Cl` the Potency was “inactive”.
For `NC(N)=N/N=C/c1cccc(Cl)c1Cl`, the Potency was inconclusive [inhibitor, single point].
For `CC(C)c1ccc2c(c1)C1Cc3ccccc3C1N2` (configuration not stated), the Potency was inconclusive [inhibitor, partial curve, poor fit].
In the case of `Cn1c(=O)c([N+](=O)[O-])c(NCc2ccccc2Cl)c2ccccc21`, the Potency is reported as inconclusive [inhibitor, partial curve].
In the case of `Cc1ccc(-c2nnn(CC(=O)N(Cc3ccco3)C(C(=O)NC3CCCC3)c3cccs3)n2)o1` (configuration not stated), the Potency is reported as inconclusive [inhibitor, full curve, poor fit].
In the case of `Cc1ccc(S(=O)(=O)Nc2ccc(NC(=O)Nc3ccc(F)cc3F)cc2)cc1`, the Potency is reported as inconclusive [inhibitor, full curve].
In the case of `CCOc1ccc(Br)cc1S(=O)(=O)Nc1cccc(S(=O)(=O)Nc2ccccc2C(=O)O)c1`, the Potency is reported as inconclusive [inhibitor, partial curve].
With `Cc1cc(/C=C2/C(=N)N3C(=NC2=O)SN=C3S(C)(=O)=O)c(C)n1-c1ccc(F)cc1` the Potency was “inactive”.
With `C[C@H](NC(=O)C1CCN(S(=O)(=O)c2ccccc2)CC1)C(=O)NCc1ccc(Cl)c(Cl)c1` the Potency was inconclusive [inhibitor, single point].
For `C=CCn1c(=S)[nH]c2scc(-c3ccco3)c2c1=O`, the Potency was inconclusive [inhibitor, full curve].
In the case of `Cc1ccc(S(=O)(=O)N2[C@@H](c3ccc(C(C)(C)C)cc3)C(C(=O)O)=CC[C@H]2c2ccc(C(C)C)cc2)cc1`, the Potency is reported as active: 31.6 µM.
With `CCc1nc2sc3ccccc3c(=O)c2c(=O)n1Cc1ccco1` the Potency was inconclusive [inhibitor, partial curve].
`COC(=O)CCCNc1ncccc1[N+](=O)[O-]` was tested, and the Potency was inconclusive [inhibitor, full curve, poor fit].
`C/C(=N/NS(=O)(=O)c1ccc(C(C)(C)C)cc1)c1ccc2c(c1)OCO2` was tested, and the Potency was inconclusive [inhibitor, single point].
In the case of `CC[C@@H](C(=O)[C@@H](C)[C@@H](O)[C@H](C)CCc1ccc(C)c(O)c1C(=O)O)[C@H]1O[C@](CC)([C@H]2CC[C@](O)(CC)[C@H](C)O2)C[C@@H]1C`, the Potency is reported as inconclusive [inhibitor, partial curve].
`CC(=O)Nc1ccc(-c2ccnc3c2CC(C)(C(=O)NCc2ccc(F)c(F)c2)O3)cc1` (configuration not stated) was tested, and the Potency was inconclusive [inhibitor, partial curve, poor fit].
With `CCN(CC(=O)Nc1ccc(Br)cc1)CC(=O)Nc1cc(C)on1` the Potency was inconclusive [inhibitor, single point].
With `Cc1ccc(S(=O)(=O)NC(=O)Cn2nnc(-c3ccccc3)c2COc2ccc3ccccc3c2)cc1` the Potency was inconclusive [inhibitor, partial curve].
For `O=C(COC(=O)c1ccc(S(=O)(=O)NCc2ccco2)cc1)NCc1ccc(F)cc1`, the Potency was “inactive”.
With `COc1ccc(OCC(=O)NC(=S)Nc2ccc(S(=O)(=O)Nc3cc(OC)nc(OC)n3)cc2)cc1` the Potency was “inactive”.
With `Cc1ccccc1NC(=O)CCc1c(C)nn(-c2ccc(N3CCCCC3)nn2)c1C` the Potency was inconclusive [inhibitor, partial curve].
In the case of `CCc1ccc2[nH]c(=O)c(CN(Cc3nnnn3C3CCCC3)C3CCCCC3)cc2c1`, the Potency is reported as “inactive”.
For `Cc1cc(C)c(N=C2C(=O)Nc3ccccc32)c(C)c1`, the Potency was inconclusive [inhibitor, partial curve, poor fit].
`CCOc1ccc(CN(C)Cc2cc(=O)oc3c(C)c(C)ccc23)cc1OC` was tested, and the Potency was inconclusive [inhibitor, single point].
With `Cc1cc(C)cc(NC(=S)N2CCN(S(=O)(=O)c3ccccc3)CC2)c1` the Potency was inconclusive [inhibitor, single point].
`Cc1ccc(CCNC(=O)CCn2c(=O)c3cccn3c3ccc(F)cc32)cc1` was tested, and the Potency was inconclusive [inhibitor, full curve, poor fit].
In the case of `CCOc1ccc(S(=O)(=O)NCC(c2ccc3c(c2)OCO3)N2CCN(C)CC2)cc1` (configuration not stated), the Potency is reported as inconclusive [inhibitor, full curve, poor fit].
In the case of `COC(=O)c1cc2ccccc2oc1=O`, the Potency is reported as inconclusive [inhibitor, partial curve].
`COc1ccc(NC(=O)c2cccc3ccccc23)cc1` was tested, and the Potency was “inactive”.
For `CSc1cccc(NC(=O)CN(c2ccc(C)cc2C)S(C)(=O)=O)c1`, the Potency was inconclusive [inhibitor, partial curve].
With `COc1ccc(CC(N)c2csc(NC(=O)c3cc(C(C)(C)C)oc3C)n2)cc1` (configuration not stated) the Potency was “inactive”.
In the case of `O=S(=O)(/C=C/c1ccccc1)NC1CCCCCC1`, the Potency is reported as inconclusive [inhibitor, single point].
With `Cc1cccc(Cl)c1OCCCn1ccnc1` the Potency was “inactive”.
`O=C(NC(c1ccccc1)c1cnccn1)C1CCN(CCOc2ccc(Cl)cc2Cl)CC1` (configuration not stated) was tested, and the Potency was inconclusive [inhibitor, single point].
`CCOc1ccc2c(c1)C(=O)c1cc(OCC(=O)O)ccc1-2` was tested, and the Potency was “inactive”.
With `NC(=O)C1CCN(C(=O)CC2(CC(=O)O)CCCC2)CC1` the Potency was inconclusive [inhibitor, partial curve, poor fit].
`Cn1cc(S(=O)(=O)c2ccccc2)c(=O)c2cc(F)c(N3CCOCC3)cc21` was tested, and the Potency was inconclusive [inhibitor, full curve, poor fit].
`Cc1cc(C)n2c(SC/C(O)=C(\C#N)c3nc4ccccc4[nH]3)nnc2n1` was tested, and the Potency was inconclusive [inhibitor, partial curve, poor fit].
For `Cc1cc(/C([O-])=C(/C(=S)Nc2ccc(F)cc2)[n+]2ccccc2)c(C)n1Cc1ccccc1Cl`, the Potency was inconclusive [inhibitor, full curve, poor fit].
`O=C(C=Cc1ccccc1)CC(c1ccccc1)N1CCOCC1` (configuration not stated) was tested, and the Potency was inconclusive [inhibitor, partial curve].
With `CCOc1cccc(-c2c(C(=O)N/N=C/c3cccs3)nnn2-c2nonc2N)c1` the Potency was inconclusive [inhibitor, partial curve].
In the case of `COCCNC(=O)C(c1ccccc1)N(C(=O)Cn1nnc2ccccc21)c1cccnc1` (configuration not stated), the Potency is reported as “inactive”.
`COc1cc(/C=C2\SC(=O)N(c3ccc(Cl)cc3)C2=O)cc([N+](=O)[O-])c1O` was tested, and the Potency was inconclusive [inhibitor, full curve].
`O=C(CCl)N(CCc1ccccc1)CCc1ccccc1` was tested, and the Potency was inconclusive [inhibitor, partial curve, poor fit].
For `Cc1cc(Oc2cccc3c2S(=O)(=O)N(C2CCCC2)CC(COCc2ccccc2)O3)cc(C)c1C` (configuration not stated), the Potency was “inactive”.
For `Cc1ccc(C(=O)c2c3ccc(C(F)(F)F)cc3[n+]([O-])n2CCCN)cc1`, the Potency was “inactive”.
`C/C(=N\NC(=O)CC#N)c1cc2ccccc2oc1=O` was tested, and the Potency was inconclusive [inhibitor, partial curve, poor fit].
For `COCCn1c(SCC(=O)Nc2ccc3c(c2)CCC3)nc2ccccc2c1=O`, the Potency was inconclusive [inhibitor, single point].
For `Oc1ccc2ccccc2c1C=Nc1ccc(Cl)cn1`, the Potency was inconclusive [inhibitor, single point].
Note: nearly all actives have a fitted effect of over 50% in size.
Potency is the fitted concentration of half-maximal effect; tags give direction and shape of the fitted curve.
